{
  "source": "patent US20070218061A1",
  "about": "(VASGENE THERAPEUTICS, published 2007)",
  "binders": {"B1": {"name": "HSA-EphB4 protein, mature form (EphB4 ectodomain fused to HSA) (other)", "chain": "LEETLLNTKLETADLKWVTFPQVDGQWEELSGLDEEQHSVRTYEVCDVQRAPGQAHWLRTGWVPRRGAVHVYATLRFTMLECLSLPRAGRSCKETFTVFYYESDADTATALTPAWMENPYIKVDTVAAEHLTRKRPGAEATGKVNVKTLRLGPLSKAGFYLAFQDQGACMALLSLHLFYKKCAQLTVNLTRFPETVPRELVVPVAGSCVVDAVPAPGPSPSLYCREDGQWAEQPVTGCSCAPGFEAAEGNTKCRACAQGTFKPLSGEGSCQPCPANSHSNTIGSAVCQCRVGYFRARTDPRGAPCTTPPSAPRSVVSRLNGSSLHLEWSAPLESGGREDLTYALRCRECRPGGSCAPCGGDLTFDPGPRDLVEPWVVVRGLRPDFTYTFEVTALNGVSSLATGPVPFEPVNVTTDREVPPAVSDIRVTRSSPSSLSLAWAVPRAPSGAVLDYEVKYHEKGAEGPSSVRFLKTSENRAELRGLKRGASYLVQVRARSEAGYGPFGQEHHSQTQLDESEGWREQSR[about 600 residues not spelt out]", "modifications": "biotin on carbohydrate chains (sodium meta-periodate oxidation, EZ-Link Biotin Hydrazide)", "notes": "also called B4-HSA; sB4-HSA"}},
  "target": "T1, EphrinB2EC-AP from pAPTag2 (human)",
  "T1 construct": "also called B2-AP; B2ECAP reagent",
  "T1 chain": "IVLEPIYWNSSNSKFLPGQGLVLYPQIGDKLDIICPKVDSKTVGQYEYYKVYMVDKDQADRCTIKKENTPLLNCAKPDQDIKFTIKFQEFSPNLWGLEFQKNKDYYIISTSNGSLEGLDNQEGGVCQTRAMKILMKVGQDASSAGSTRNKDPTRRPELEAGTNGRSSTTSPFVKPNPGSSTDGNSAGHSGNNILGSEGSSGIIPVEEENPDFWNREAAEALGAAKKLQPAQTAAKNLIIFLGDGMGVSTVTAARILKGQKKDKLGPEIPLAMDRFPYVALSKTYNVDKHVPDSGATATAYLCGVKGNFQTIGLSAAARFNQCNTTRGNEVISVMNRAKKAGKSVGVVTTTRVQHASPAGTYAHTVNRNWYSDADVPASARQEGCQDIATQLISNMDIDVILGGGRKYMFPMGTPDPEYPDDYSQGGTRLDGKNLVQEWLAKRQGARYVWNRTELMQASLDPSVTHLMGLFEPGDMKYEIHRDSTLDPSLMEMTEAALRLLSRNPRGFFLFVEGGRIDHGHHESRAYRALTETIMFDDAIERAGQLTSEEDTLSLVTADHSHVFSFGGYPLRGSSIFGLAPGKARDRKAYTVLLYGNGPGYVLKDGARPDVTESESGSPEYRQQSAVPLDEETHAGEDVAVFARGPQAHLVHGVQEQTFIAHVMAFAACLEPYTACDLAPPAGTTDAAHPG",
  "assay": "EphrinB2 binding assay of SP-Sepharose fractions",
  "data": [
    {"binder": "B1", "values": [
      {"measurement": "binding result", "result": "binds"}
    ]}
  ]
}
